The values that follow come from article PMC12040169 (PLOS Biology, 2025).

Structures are written as SMILES. Some of the results follow.

In this assay the test system is T1, C. trachomatis L2/434/Bu expressing GFP (CTL2-GFP).
T1 construct: L2/434/Bu GFP intracellular growth in HeLa cells
Also on record: species or system HeLa; C. trachomatis total inclusion area by high-content imaging, normalised to DMSO. Particulars: total inclusion area; 28.5 h, 10 µM; inhibitor. The procedure, abridged:
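Following bulk GFP and resorufin fluorescence reads, infected cells were fixed, Hoechst-stained and imaged on a high-content platform. Inclusion total area and number per well served as growth proxies; nuclei counts indicated host viability. MICs were derived as for the fluorescence assay.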
Take `O=C(COc1ccccc1)Nc1ccc2n(c1=O)C[C@H]1C[C@@H]2CN(C(=O)c2ccccc2)C1` [CBK289079]: the “% of control remaining” value amounted to 116.341. The result for `Cc1cc(COc2nc3ccccc3nc2N2CCCC2C(=O)OC(C)(C)C)no1` (stereo not drawn) [CBK173753] reads 72.7543.

With `O=C(NCc1csc(-c2ccccc2)n1)C1CC=CCC1` (stereo not drawn) [CBK092348], the “% of control remaining” value stood at 101.435. As to `Cc1cccc(-c2ccc3c(c2)C(=O)N2CC[C@H](NC(=O)N4CCOCC4)[C@H]2C(=O)N3)c1C` [CBK289347], the “% of control remaining” value is 105.162.

For the compound `N#Cc1c(NC(=O)CN2CCc3ccccc3C2)sc2c1CCCC2` [CBK269126], the “% of control remaining” value turned out to be 89.0647. In the case of `Nc1ncc(-c2cccc(OC(F)(F)F)c2)nc1N1CCN(CCO)CC1` [CBK063435], the “% of control remaining” value is 94.5799. The result for `CNc1ccc(OC(=O)c2ccco2)cc1` [CBK010779] reads 48.4964; that for `Cc1ccc2c(c1)CC(=O)NC21CCN(C(=O)C2CC2C(=O)O)CC1` (stereo not drawn) [CBK047258], 97.8383. The result for `Brc1ccc(-n2c(SC/C=C/c3ccccc3)nnc2-c2ccncc2)cc1` [CBK266257] reads 120.41; that for `Cc1cc(C)n(CCCN(C)Cc2c(C)nc3ccccn23)n1` [CBK281901], 87.3526.

Take `CCCn1c(CN2CCN(CCO)CC2)nc2ccccc21` [CBK269363]: the “% of control remaining” value is listed as 102.877. The result for `Cc1sc(NC(=S)NC(=O)Cc2cccc3ccccc23)c(C(N)=O)c1C` [CBK266344] reads 118.58; that for `COc1ccc([N+](=O)[O-])cc1-c1ccc(-c2nc(-c3ccccc3)c(-c3ccccc3)[nH]2)o1` [CBK262497], 109.558; that for `Cc1nn2c(-c3cccc(NC(=O)CN4CCOCC4)c3)nnc2c2ccccc12` [CBK268383], 109.064.

On to `Cc1cccnc1C(NC(=O)C1CCN(C/C=C/c2ccco2)CC1)c1ccc(Cl)cc1` (stereo not drawn) [CBK148201], for which the “% of control remaining” value was determined as 100.628. The result for `Cc1ccc(NC(=O)CN2C(=O)S/C(=C\c3cc(C)n(-c4ccc(C(=O)O)cc4)c3C)C2=O)cc1` [CBK264465] reads 114.61; that for `O=C(Nc1cc2ccccc2c(Br)n1)c1ccc(C(F)(F)F)cc1[N+](=O)[O-]` [CBK063299], 88.616; that for `NC(=O)CSc1nnc2ccc3ccccc3n12` [CBK287794], 71.1348. The result for `O=C(c1n[nH]c2ccccc12)N1CCc2ccccc21` [CBK200282] reads 100.258; that for `O=C(Nc1ccc(Cc2ccncc2)cc1)c1ccc(-c2cc3ccccc3oc2=O)cc1` [CBK268952], 93.8127. The result for `OC1(Cn2cnc3ccccc32)CCN(CCc2ccccc2)CC1` [CBK284789] reads 107.269.

With `CCOC(=O)N1CCC(NS(=O)(=O)c2cc(C(=O)OC)n(C)c2)CC1` [CBK304688], the “% of control remaining” value is 69.9404.

As for `Cc1cnc(CNC(=O)N2CCN(c3cc(C(F)(F)F)ccn3)CC2)cn1` [CBK162320], the “% of control remaining” value turned out to be 37.083. The result for `Cc1ccc(SCC(=O)Nc2cc(C)on2)cc1` [CBK057070] reads 78.5782. The result for `Cc1nc(-c2ccccc2)sc1C(=O)C1=C(O)C(=O)N(CCN2CCOCC2)C1c1ccccc1F` (stereo not drawn) [CBK266511] reads 133.066. The result for `Cn1ccnc1C1(O)CC2CCC(C1)N2C(=O)c1ccccc1F` (stereo not drawn) [CBK284085] reads 93.985; that for `Cn1c2ccccc2c2nnc(SCCCC(=O)c3ccc4c(c3)OCCO4)nc21` [CBK268750], 129.743; that for `COCCN(C(=O)CSc1ccc2ccccc2n1)C1CCS(=O)(=O)C1` (stereo not drawn) [CBK304988], 87.3393.

As to `Fc1cc(Br)c(CNCc2ccno2)c(N2CCCCC2)c1F` [CBK304723], the “% of control remaining” value worked out at 80.9406. The result for `CN1CCN(C(=O)CCn2c(C(F)(F)F)cc3cccnc32)CC1` [CBK284896] reads 95.5458. Regarding `N=C(N)NCC(=O)N(CCc1cc(C(F)(F)F)cc(C(F)(F)F)c1)c1cccc2ccccc12` [CBK001122T], the “% of control remaining” value turned out to be 30.6099. As to `OCCC1CNCCN1Cc1ccc(F)c(F)c1` (stereo not drawn) [CBK269824], the “% of control remaining” value is 90.0226. The result for `Cc1cc2c(s1)c1cnn(CC(=O)N3CCCC3)c(=O)c1n2C` [CBK284153] reads 85.1719; that for `O=C(NCc1ccncc1)OCCc1ccncc1` [CBK200133], 94.3487. The result for `CC(=O)Nc1ccc(C(=O)N2CCNC(=O)C2Cc2ccccc2-c2cccc(C)c2)cc1` (stereo not drawn) [CBK285837] reads 108.4. As for `Cc1ccc(S(=O)(=O)N2c3ccc(C(=O)O)cc3CC2C)cc1` (stereo not drawn) [CBK286584], the “% of control remaining” value amounted to 84.918.

For the compound `N#C/C(=C/c1ccc(-c2ccc(S(N)(=O)=O)cc2)o1)S(=O)(=O)c1ccc(Cl)cc1` [CBK266383], the “% of control remaining” value is 77.4586. The result for `CCOc1cc(OCC)cc(C(=O)N2CCC3(CC2)CC(=O)c2ccc(OCC)c(C)c2O3)c1` [CBK168015] reads 57.2441.

In the case of `CCOc1ccccc1OCC(=O)NN` [CBK261782], the “% of control remaining” value is 91.8612. The result for `NS(=O)(=O)c1ccc(/N=C/c2cccc(OCc3ccccc3)c2)cc1` [CBK261594] reads 79.6202; that for `CCCC1CCN(Cc2ccn(Cc3ccc(S(C)(=O)=O)cc3)c2)CC1` [CBK144937], 103.238; that for `Cc1cc(C)c(C)c(OCC(=O)N(Cc2nc(-c3ccccc3)no2)C2CCCCC2)c1` [CBK268974], 89.133. The result for `O=C(CN1C(=O)c2ccccc2C1=O)Nn1cnnc1` [CBK263789] reads 114.822; that for `CO[C@@]12CC[C@@H](OCC(=O)O)C[C@@H]1N(Cc1ccccc1C)CC2` [CBK307548], 30.9319; that for `COc1ncc(-c2nccnc2NCCc2ccncc2)c(OC)n1` [CBK038074], 128.777.

As to `COc1ccc(Cc2c(C)nc3c(C(=O)NCCSC)cnn3c2C)cc1` [CBK162191], the “% of control remaining” value is given as 81.1859. The result for `CN(C)CCCNC(=O)c1cc(-c2ccc(Cl)cc2)on1` [CBK116557] reads 100.293.

Take `N#Cc1cccnc1N1CCC(NC(=O)Cn2cccnc2=O)CC1` [CBK307275]: the “% of control remaining” value amounted to 62.7433. `CCNS(=O)(=O)c1ccc(NC(=O)Nc2cc(C)ccc2OC)cc1` [CBK266850]: the “% of control remaining” value came to 94.6933. The result for `CCOC(=O)c1[nH]c2ccccc2c1NC(=O)c1ccc(OC(F)(F)F)cc1` [CBK160157] reads 97.2057; that for `Cc1nc(CNC(=O)NC2CCCN(c3ncccn3)C2)cs1` (stereo not drawn) [CBK305640], 87.2356; that for `c1ccc(-c2cc(CC3(NCc4cc5ccccc5o4)COC3)no2)nc1` [CBK289239], 111.673. The result for `Cc1nc2c(c(=O)[nH]1)CN(CC1CCCCC1)CC2` [CBK283947] reads 66.2052; that for `Clc1ccc(COc2nccnc2N2CCN(Cc3ccc4c(c3)OCO4)CC2)cc1Cl` [CBK083078T], 81.769. The result for `O=C(CO)N1CC2(CCN(Cc3cccc4cccnc34)CC2)c2ccccc21` [CBK137004] reads 74.4044; that for `COc1ncc(-c2cncc(N3CCN(c4ccccc4C#N)CC3)n2)c(OC)n1` [CBK037872], 88.8821. For `NNC(=O)CCc1nc2cc(O)ccc2[nH]1` [CBK263633], the “% of control remaining” value is 99.9552. Regarding `CCOCCCNC(=O)c1cnn2c(C)c(Cc3cccc(OC)c3)c(C)nc12` [CBK162056], the “% of control remaining” value is recorded as 94.391. The result for `O=C1COc2ccccc2C/C=C/CC2(CCN(C(=O)c3cncc(O)c3)CC2)C(=O)NCCN1` [CBK291989] reads 128.78. The result for `COc1cccc(C(NC(=O)c2cccc(Cn3ccnc3C)c2)c2ccccc2)c1` (stereo not drawn) [CBK285620] reads 92.3862.

For `NC(=O)C1(Cc2ccc(-c3ccccc3)cc2)CCN(C(=O)Cc2ccccc2)CC1` [CBK285771], the “% of control remaining” value worked out at 76.7203. The result for `CCCc1cc(C(=O)NC2(CN3CCCC3)CCCCC2)[nH]n1` [CBK282464] reads 110.37. Regarding `O=C(c1cc(F)c(F)cc1F)N1CCC2(CCCN(CCN3CCOCC3)C2)C1` (stereo not drawn) [CBK132015], the “% of control remaining” value was 102.212. The result for `CC(=O)NCc1cccc(-c2cc(C(=O)O)cnc2-c2ccc(Cl)cc2)c1` [CBK156194] reads 87.0451.

Regarding `O=[N+]([O-])c1ccc(N2CCN(S(=O)(=O)c3ccc4ccccc4c3)CC2)cc1NC1CC1` [CBK264361], the “% of control remaining” value was 112.686. In the case of `O=C(CSCc1ccccc1)Nc1ccc(O)cc1C(=O)O` [CBK126817], the “% of control remaining” value amounted to 93.4073. The result for `O=C(NCCCO)C1CCCN(S(=O)(=O)c2ccc3ccccc3c2)C1` (stereo not drawn) [CBK270141] reads 77.1318; that for `O=C(NCc1ccc(-c2csnn2)cc1)c1cccc(C(F)(F)F)c1` [CBK149293], 98.0167; that for `CC(C)CNC(=O)c1cc([C@H]2CC[C@H](CNC(=O)Cn3cccn3)CC2)nc2ccccc12` [CBK285860], 105.278. The result for `Cc1cc(CNC(=O)CCc2c(C)nc3nc(N)nn3c2C)ccc1F` [CBK306212] reads 113.072; that for `Cc1nc2ccccn2c1-c1csc(N)n1` [CBK288628B], 104.963; that for `c1ccc(CC(Cc2nc3ccccc3[nH]2)c2nc3ccccc3[nH]2)cc1` (stereo not drawn) [CBK150452], 89.7112. As for `O=S(=O)(c1ccccc1)C1CC1` [CBK023184], the “% of control remaining” value came to 87.9279. As to `CCOC(=O)c1cnn(C2CCCN(Cc3cccs3)C2)c1` (stereo not drawn) [CBK305121], the “% of control remaining” value is 91.0788.

With `Cn1nccc1C(=O)N[C@H]1C2CCCCC2[C@@H]1c1ccccc1` (stereo partly drawn) [CBK285127], the “% of control remaining” value is recorded as 105.452.

Consider `CC(C)C[C@@H](C(=O)N1CCC(C(=O)O)CC1)n1c(=O)[nH]c2ccccc2c1=O` [CBK286762], for which the “% of control remaining” value turned out to be 76.4224. Regarding `CCS(=O)(=O)Nc1ccc(C2=NN(S(=O)(=O)c3ccc(F)cc3)C(c3ccccc3C)C2)cc1` (stereo not drawn) [CBK269161], the “% of control remaining” value stood at 102.98. The result for `Cc1cccc(-c2csc3c(=O)[nH]c(N4CCC(C(=O)NCCN(C)C)CC4)nc23)c1` [CBK215633] reads 124.137.
